From publication PMC3290997 (Biochemistry, 2012)

Target: the molecule itself
Assay: cross-linking

B1: SecA (enzyme)
chain: not shown
stoichiometry N: 2
